Measured values published in the RNAGym collection of RNA variant scans (doi:10.1073/pnas.2313332121).
Variants at the background level are over-represented here.

B1: TPR 5TU (parent)
chain: GGAUCUUCUCGAUCUAACAAAAAAGACAAAUCUGCCACAAAGCUUGAGAGCAUCUUCGGAUGCAGAGGCGGCAGCCUUCGGUGGCGCGAUAGCGCCAACGUUCUCAACUAUGACACGCAAAACGCGUGCUCCGUUGAAUGGAGUUUAUCAUG

Variants of: B1
Experiment: polymerase ribozyme fitness, log enrichment relative to wild type (log ratio); higher = more active; in vitro selection for triplet polymerase activity
Method in brief: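 After PCR construction and transcription, each subunit's mutant library from a heterodimeric triplet polymerase ribozyme was annealed with a biotinylated primer, the partner subunit and triplets. Incubation was frozen, at −7 °C, and extended constructs were gel-excised, bound to streptavidin beads and amplified by RT-PCR, in one selection round done in triplicate. Fitness is the logarithm of a genotype's enrichment divided by that of the wild type, from inverse-variance-weighted replicate averages of Illumina-sequenced inputs and outputs. The base of the logarithm is 2, and genotypes needed ≥10 input reads and ≥1 read per output.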
For A24U C35U G68U C85G A89U A91U, the “polymerase ribozyme fitness (log ratio)” value was ≤ -4.2. In the case of A24U C38U, the “polymerase ribozyme fitness (log ratio)” value is reported as 0.361. In the case of A24U C43G U55A A60G G88A U90G, the “polymerase ribozyme fitness (log ratio)” value is reported as ≤ -4.2. In the case of A24U C43G U56G A73G, the “polymerase ribozyme fitness (log ratio)” value is reported as ≤ -4.2. With A24U C43U G81U G86A A150G the “polymerase ribozyme fitness (log ratio)” value was ≤ -4.2. In the case of A24U C51U G59C G83A G84U C131U, the “polymerase ribozyme fitness (log ratio)” value is reported as -3.74. With A24U C54A C79A the “polymerase ribozyme fitness (log ratio)” value was ≤ -4.2. In the case of A24U C54U C93G G94A C95U A113U C149A, the “polymerase ribozyme fitness (log ratio)” value is reported as ≤ -4.2. For A24U C57U A89U G92C U127C C131G, the “polymerase ribozyme fitness (log ratio)” value was ≤ -4.2. With A24U C72A G94C A107G C116G the “polymerase ribozyme fitness (log ratio)” value was ≤ -4.2. For A24U C72U C76A U104G U151C, the “polymerase ribozyme fitness (log ratio)” value was ≤ -4.2. With A24U C85G C105G A107U U111A A115U C132G the “polymerase ribozyme fitness (log ratio)” value was ≤ -4.2. For A24U C93U G136A, the “polymerase ribozyme fitness (log ratio)” value was -1.47. In the case of A24U C96G, the “polymerase ribozyme fitness (log ratio)” value is reported as -0.301. With A24U C96U G117A G133A U145A the “polymerase ribozyme fitness (log ratio)” value was ≤ -4.2. In the case of A24U C125A, the “polymerase ribozyme fitness (log ratio)” value is reported as -0.572. In the case of A24U G25A A39G A60U G83C, the “polymerase ribozyme fitness (log ratio)” value is reported as ≤ -4.2. In the case of A24U G25C A28G A30G A49U G83A C87A, the “polymerase ribozyme fitness (log ratio)” value is reported as ≤ -4.2. With A24U G34U G42A U55G A91C G94A the “polymerase ribozyme fitness (log ratio)” value was -3.62. With A24U G42A G50C C72G C96G U127G the “polymerase ribozyme fitness (log ratio)” value was ≤ -4.2. With A24U G46A G68A C79A G84C C87U U134G the “polymerase ribozyme fitness (log ratio)” value was ≤ -4.2. For A24U G46A U61A U134A A137C U144A, the “polymerase ribozyme fitness (log ratio)” value was ≤ -4.2. In the case of A24U G58A A66U C87A U90G U146C, the “polymerase ribozyme fitness (log ratio)” value is reported as ≤ -4.2. For A24U G58A C79G A91U C118A G141C, the “polymerase ribozyme fitness (log ratio)” value was ≤ -4.2. For A24U G58C C85U C93G A97G C118U, the “polymerase ribozyme fitness (log ratio)” value was ≤ -4.2. For A24U G68A, the “polymerase ribozyme fitness (log ratio)” value was -3.78. For A24U G68C, the “polymerase ribozyme fitness (log ratio)” value was ≤ -4.2. With A24U G68C G83U A107C the “polymerase ribozyme fitness (log ratio)” value was ≤ -4.2. In the case of A24U G74U C99U A142C C149G, the “polymerase ribozyme fitness (log ratio)” value is reported as ≤ -4.2. In the case of A24U G80C, the “polymerase ribozyme fitness (log ratio)” value is reported as -4.14. With A24U G81U G88A G94C the “polymerase ribozyme fitness (log ratio)” value was ≤ -4.2. For A24U G84A C93G, the “polymerase ribozyme fitness (log ratio)” value was ≤ -4.2. With A24U G86A C103G G117A A120C A138C the “polymerase ribozyme fitness (log ratio)” value was ≤ -4.2. For A24U G86U, the “polymerase ribozyme fitness (log ratio)” value was -2.59. In the case of A24U G86U A107C A138C A142U, the “polymerase ribozyme fitness (log ratio)” value is reported as ≤ -4.2. In the case of A24U G100C U104G, the “polymerase ribozyme fitness (log ratio)” value is reported as ≤ -4.2. With A24U G133C G141C the “polymerase ribozyme fitness (log ratio)” value was ≤ -4.2. For A24U U31A A37U G143C, the “polymerase ribozyme fitness (log ratio)” value was ≤ -4.2. With A24U U33C A37U U44A U56A G58C A60G U61A U102C A122U the “polymerase ribozyme fitness (log ratio)” value was ≤ -4.2. In the case of A24U U33C C36U C72G C87A A106U A121G C125U, the “polymerase ribozyme fitness (log ratio)” value is reported as ≤ -4.2. For A24U U44A C79G G92A C114U U148G, the “polymerase ribozyme fitness (log ratio)” value was ≤ -4.2. For A24U U44A G74A U130A, the “polymerase ribozyme fitness (log ratio)” value was ≤ -4.2. For A24U U45A A49C C57G U77G G83C A89U, the “polymerase ribozyme fitness (log ratio)” value was ≤ -4.2. In the case of A24U U45G A106G A120U A121G A122G G143C, the “polymerase ribozyme fitness (log ratio)” value is reported as ≤ -4.2. In the case of A24U U53A A66G C93G U101C A119U, the “polymerase ribozyme fitness (log ratio)” value is reported as ≤ -4.2. For A24U U53A C57G A115U U151A, the “polymerase ribozyme fitness (log ratio)” value was ≤ -4.2. In the case of A24U U55C C85A, the “polymerase ribozyme fitness (log ratio)” value is reported as -1.34. With A24U U55G A142U A150G the “polymerase ribozyme fitness (log ratio)” value was ≤ -4.2. With A24U U55G C85U U139C the “polymerase ribozyme fitness (log ratio)” value was ≤ -4.2. For A24U U55G G70C C75G C85G G128A, the “polymerase ribozyme fitness (log ratio)” value was ≤ -4.2. For A24U U55G U61A C123U G133C, the “polymerase ribozyme fitness (log ratio)” value was ≤ -4.2. With A24U U61A C93A C116G the “polymerase ribozyme fitness (log ratio)” value was -4.17. In the case of A24U U77G C105G A120U, the “polymerase ribozyme fitness (log ratio)” value is reported as ≤ -4.2. With G25A A26G A40G A47C C85A C116G A119C the “polymerase ribozyme fitness (log ratio)” value was ≤ -4.2. With G25A A26U A28C A41C A60G C76A A91U C108U the “polymerase ribozyme fitness (log ratio)” value was ≤ -4.2. For G25A A37G C54A C87G, the “polymerase ribozyme fitness (log ratio)” value was ≤ -4.2. In the case of G25A A49G C96G, the “polymerase ribozyme fitness (log ratio)” value is reported as -3.91. With G25A A52U G92A G100U C105A the “polymerase ribozyme fitness (log ratio)” value was ≤ -4.2. With G25A C69G G70A C87A G140U the “polymerase ribozyme fitness (log ratio)” value was ≤ -4.2. For G25A G42C C43A G59C G83A C85U C114G A142U G143U, the “polymerase ribozyme fitness (log ratio)” value was ≤ -4.2. With G25A G42U G80A C93U C116U the “polymerase ribozyme fitness (log ratio)” value was ≤ -4.2. In the case of G25A G46U A64U G86U G88C C93G C123G, the “polymerase ribozyme fitness (log ratio)” value is reported as ≤ -4.2. In the case of G25A G88A A91G C96A, the “polymerase ribozyme fitness (log ratio)” value is reported as ≤ -4.2. In the case of G25A U44G, the “polymerase ribozyme fitness (log ratio)” value is reported as ≤ -4.2. With G25A U55G U56A U61C C87U A97G C99U the “polymerase ribozyme fitness (log ratio)” value was ≤ -4.2. With G25A U56G G88C U134A the “polymerase ribozyme fitness (log ratio)” value was ≤ -4.2. In the case of G25A U82C C105U C114U, the “polymerase ribozyme fitness (log ratio)” value is reported as ≤ -4.2. For G25C A26G U53A G143A, the “polymerase ribozyme fitness (log ratio)” value was ≤ -4.2. With G25C A28C C38U A52C G84A U139A the “polymerase ribozyme fitness (log ratio)” value was ≤ -4.2. In the case of G25C A28C C43A U101A G128A, the “polymerase ribozyme fitness (log ratio)” value is reported as ≤ -4.2. With G25C A28G A40G G126C G141A A142G U146C the “polymerase ribozyme fitness (log ratio)” value was ≤ -4.2. In the case of G25C A28U A52C U53A C57U C96A C116A A147G, the “polymerase ribozyme fitness (log ratio)” value is reported as ≤ -4.2. With G25C A29C C85U A97U A113U C123A A147G the “polymerase ribozyme fitness (log ratio)” value was ≤ -4.2. In the case of G25C A37G C95U A107G, the “polymerase ribozyme fitness (log ratio)” value is reported as ≤ -4.2. In the case of G25C A40G A49G C51U A89G C96U, the “polymerase ribozyme fitness (log ratio)” value is reported as ≤ -4.2. For G25C A49U U55A G81A G94U U104G A121C A137G U151A, the “polymerase ribozyme fitness (log ratio)” value was ≤ -4.2. In the case of G25C A52U A91U A98G, the “polymerase ribozyme fitness (log ratio)” value is reported as ≤ -4.2. For G25C A60G G86C C105U, the “polymerase ribozyme fitness (log ratio)” value was -3.36. With G25C A64C G84C A113C the “polymerase ribozyme fitness (log ratio)” value was ≤ -4.2. In the case of G25C A91C A137C, the “polymerase ribozyme fitness (log ratio)” value is reported as ≤ -4.2. With G25C A91U G100U U109C C118G A138G G141C the “polymerase ribozyme fitness (log ratio)” value was ≤ -4.2. For G25C C27G C32U A40C U55A C57A G88U C96U G141A, the “polymerase ribozyme fitness (log ratio)” value was ≤ -4.2. With G25C C35U G74C C75A U148G the “polymerase ribozyme fitness (log ratio)” value was ≤ -4.2.
